# According to the supplement of paper PMC4166925:
# ± gives the standard deviation of the averaged measurements. Whole data set: some 33,000 sequences, median “E-score (dimensionless, -0.5 to 0.5)” near -0.046, cut for the highest 2% near 0.36. The list shows a part of the results.
# Test system: T1, SpTbr T-box DNA-binding domain (GST fusion)
# T1 sequence: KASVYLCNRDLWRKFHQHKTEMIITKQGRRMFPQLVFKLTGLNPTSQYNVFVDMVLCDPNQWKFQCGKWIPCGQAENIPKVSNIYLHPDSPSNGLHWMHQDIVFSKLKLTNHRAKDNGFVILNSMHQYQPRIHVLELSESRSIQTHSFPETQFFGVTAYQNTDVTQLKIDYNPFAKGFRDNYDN
# Test: PBM E-score of 8-mer (E-score (dimensionless, -0.5 to 0.5)); Tbr is Tbrain of the sea star Patiria miniata (Pm) or the sea urchin Strongylocentrotus purpuratus (Sp); higher = stronger binding preference; most listed sequences are background and not binding sites
# Details: the construct has about 5 more residues each side
# Procedure, shortened: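 GST-fused Tbr T-box DNA-binding domains (the whole T-box plus about five flanking residues) were expressed in BL21 E. coli at 20 °C and purified by glutathione affinity chromatography. Universal Agilent oligonucleotide arrays were made double-stranded by primer extension, incubated with 200 nM protein in PBS (pH 7.5), then scanned and quantified. Every ungapped 8-mer was scored from probe intensities. The Universal PBM Analysis Suite gave each word an enrichment E-score, averaged over duplicate arrays.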
row,Sequence,PBM E-score of 8-mer
1,ACAGCCCA,-0.116 ± 0.0052
2,CGATGCAA,-0.159 ± 0.0019
3,CCGACCGG,-0.0611 ± 0.065
4,ATGACATA,-0.126 ± 0.099
5,AGTGTGCA,0.338 ± 0.012
6,CAAGACGA,-0.25 ± 0.0098
7,ACGTTGAT,-0.176 ± 0.07
8,CTGGCGGC,-0.167 ± 0.097
9,GTAGCGTA,-0.107 ± 0.097
10,ATACTTTG,-0.133 ± 0.013
11,GGTCGTGA,0.127 ± 0.035
12,GAGAACCC,0.00749 ± 0.027
13,TCAATGGA,-0.121 ± 0.064
14,CTCTTATA,-0.118 ± 0.01
15,AGATGCAG,-0.222 ± 0.086
16,AATTATCT,0.0999 ± 0.086
17,CAGTGCAC,0.1048 ± 0.00095
18,ACCTGACC,0.0637 ± 0.061
19,AAAAACAC,0.264 ± 0.043
20,GACCCCAC,-0.0617 ± 0.0078
21,AAGGCTGA,0.0392 ± 0.035
22,AAATTGTG,0.118 ± 0.03
23,AAGAACAC,0.00158 ± 0.024
24,CTGGTTTC,-0.0938 ± 0.029
25,ACCGAACT,-0.0522 ± 0.0093

row,Sequence,PBM E-score of 8-mer
1,AGCACAAC,0.00386 ± 0.038
2,CCGCGCAC,0.223 ± 0.01
3,AATCAAAA,-0.185 ± 0.11
4,CCCGCCGG,-0.159 ± 0.14
5,CAATTAAC,0.119 ± 0.041
6,ACGTAGTC,-0.232 ± 0.015
7,GAGGCAGA,0.0647 ± 0.06
8,ACGCAGCC,-0.0847 ± 0.014
9,AAATTAGT,-0.221 ± 0.022
10,AAAAGCCG,0.0208 ± 0.041
11,CCAGTGCC,-0.149 ± 0.034
12,ATTTTGCA,0.115 ± 0.047
13,GACCGGCC,-0.0846 ± 0.0048
14,AGCCGTAT,-0.134 ± 0.036
15,CGGGAAAA,0.0794 ± 0.075
16,CCTATAAA,-0.327 ± 0.015
17,GCCGGCGA,0.0956 ± 0.041
18,GACAACAA,0.215 ± 0.015
19,AGAGATAT,0.0415 ± 0.064
20,GAGTGCAC,-0.133 ± 0.015
21,AATTTTCC,-0.079 ± 0.055
22,AGTGAAGA,0.122 ± 0.002
23,AGCGGAAG,-0.0332 ± 0.023
24,AACATTTA,-0.00309 ± 0.054
25,AGCCATGA,-0.0745 ± 0.075

row,Sequence,PBM E-score of 8-mer
1,GGGAGCCC,-0.254 ± 0.028
2,CTGTTGTA,0.0999 ± 0.01
3,AAAGAACA,-0.142 ± 0.018
4,TAACTTCA,0.0425 ± 0.0037
5,CAGATTAG,-0.156 ± 0.042
6,GATGTCGC,0.148 ± 0.0072
7,GATTGGGA,-0.173 ± 0.0046
8,CTCATACC,0.0524 ± 0.046
9,CGCTAGTA,0.0886 ± 0.0043
10,CTGGTGGC,0.106 ± 0.023
11,AATCTCAG,-0.0558 ± 0.035
12,GCTTCACA,0.347 ± 0.013
13,ACTTCTTG,0.0721 ± 0.022
14,ATTATGAA,0.0146 ± 0.04
15,AGTCGCAT,0.0434 ± 0.019
16,GCTCAAAC,-0.0615 ± 0.092
17,GCGAGCAC,0.1 ± 0.013
18,GTGTTCGA,0.151 ± 0.017
19,CGTTTTCA,0.173 ± 0.0049
20,CCGCCCCG,-0.145 ± 0.079
21,ATAAAATA,-0.126 ± 0.014
22,AAACGTCC,-0.0168 ± 0.096
23,AAGTAGAT,-0.15 ± 0.018
24,ACGATGCG,0.143 ± 0.034
25,CGCTCACG,0.222 ± 0.027

row,Sequence,PBM E-score of 8-mer
1,AACGTACG,0.0909 ± 0.0016
2,ACTGCCTG,-0.17 ± 0.0091
3,ACGTGAAT,-0.0201 ± 0.073
4,CGTCTACC,-0.286 ± 0.028
5,GCGGCTAC,-0.0532 ± 0.044
6,AGGTGGAC,-0.0858 ± 0.075
7,GTTCCGCA,0.0111 ± 0.093
8,GAACGGTA,-0.245 ± 0.053
9,CCAGTACA,-0.0727 ± 0.0081
10,AATTGGCA,0.177 ± 0.032
11,AGGGGTTC,-0.0363 ± 0.029
12,ATCTTGAC,0.0665 ± 0.069
13,GGTCCAGA,-0.249 ± 0.01
14,CGTGAATC,0.284 ± 0.0052
15,CACATGTA,0.126 ± 0.022
16,CCCAGTTA,-0.175 ± 0.0019
17,ACCGCCCG,0.217 ± 0.061
18,CTGTATTA,-0.174 ± 0.023
19,AGTCTCAT,-0.116 ± 0.024
20,CGTTGGTA,0.018 ± 0.0055
21,GACTTTGA,-0.227 ± 0.027
22,CCCAGTGA,-0.143 ± 0.053
23,ATAATATC,-0.0819 ± 0.051
24,AAGTCGGG,-0.101 ± 0.053
25,CTCGACAC,0.3634 ± 0.0018

row,Sequence,PBM E-score of 8-mer
1,CTAGGGAA,-0.2 ± 0.0059
2,CTATTGGA,-0.2593 ± 0.0013
3,CCGTAGGC,-0.14 ± 0.044
4,GACAGCCC,-0.0729 ± 0.024
5,ACATGCAC,-0.00719 ± 0.071
6,GGATAGTA,-0.025 ± 0.059
7,CTGATTAC,-0.0119 ± 0.097
8,GTCACCGA,0.0907 ± 0.0094
9,TATTAGCA,0.128 ± 0.018
10,GGTCGATA,0.0927 ± 0.012
11,CGACTCCA,0.0144 ± 0.036
12,GAGATGAC,0.0916 ± 0.0063
13,CCCCATCG,-0.3 ± 0.026
14,CGGACATA,-0.151 ± 0.013
15,ATACGGCC,-0.275 ± 0.086
16,GCCAAATA,-0.125 ± 0.093
17,GTGGTGCA,0.0312 ± 0.0088
18,GCCGATCC,-0.134 ± 0.058
19,CCATCTGC,-0.0329 ± 0.0058
20,AACCAGAC,-0.149 ± 0.049
21,AGTGCAAC,0.211 ± 0.029
22,AAACGCAA,-0.178 ± 0.032
23,GTGCTCGA,-0.0589 ± 0.054
24,GTGTGGTA,0.248 ± 0.059
25,CGCAATAC,0.00402 ± 0.05

row,Sequence,PBM E-score of 8-mer
1,GAGCATCC,-0.0765 ± 0.068
2,CCGTCCAG,-0.237 ± 0.073
3,TAACGCAA,0.069 ± 0.078
4,CCGCGTAG,-0.0638 ± 0.098
5,GCTAAGCC,-0.104 ± 0.032
6,GTGCCATA,0.222 ± 0.024
7,GATGATGC,0.0737 ± 0.0083
8,GGATACTA,-0.211 ± 0.014
9,ACACAGGC,0.143 ± 0.033
10,GAACGTTA,-0.0709 ± 0.057
11,AAGAGTGG,0.023 ± 0.052
12,GATCCCCC,-0.2 ± 0.052
13,GGAACCAA,-0.103 ± 0.082
14,CACGGTAA,-0.00562 ± 0.023
15,GGTCTAGA,-0.139 ± 0.077
16,CATTACGG,-0.0429 ± 0.061
17,GCGCATAC,-0.0516 ± 0.01
18,CTCCCCAA,-0.112 ± 0.042
19,AATTATTA,0.0745 ± 0.13
20,CTCCTCAA,-0.16 ± 0.016
21,CGCTAGCC,0.102 ± 0.1
22,GTTCCCAA,-0.01837 ± 5.7e-05
23,CCGATATA,-0.257 ± 0.07
24,ACGTCTAA,-0.0805 ± 0.02
25,CCTTTTCG,-0.11 ± 0.041

row,Sequence,PBM E-score of 8-mer
1,ATCTAAAG,-0.0614 ± 0.066
2,CCGTTCAG,-0.113 ± 0.032
3,AGTTGCCG,0.176 ± 0.0081
4,CTTAGGCC,-0.193 ± 0.044
5,CGCAACAC,0.306 ± 0.024
6,GCGCAACC,0.143 ± 0.041
7,GGCCAGAA,-0.14 ± 0.0097
8,CGCTTCGA,0.0258 ± 0.043
9,CAGACGAA,-0.11 ± 0.033
10,CGAGCAAA,-0.0935 ± 0.08
11,AAACCGCG,0.0876 ± 0.057
12,CCGAGATA,-0.0195 ± 0.013
13,ACAACAAA,0.106 ± 0.012
14,CCTCGGCA,0.154 ± 0.051
15,CTCTGGAA,-0.1313 ± 0.0012
16,ACTACTTA,0.0581 ± 0.077
17,TCCCGGGA,-0.0637 ± 0.047
18,AAGCACCG,-0.158 ± 0.058
19,ATAGGGAT,-0.0862 ± 0.032
20,CACTGGAC,0.0659 ± 0.052
21,GCGCCTGA,0.0277 ± 0.025
22,GCGAGGAC,0.166 ± 0.004
23,CGACGGAA,-0.0954 ± 0.13
24,GTCACAAC,0.293 ± 0.0073
25,AGTTCATA,-0.184 ± 0.028

row,Sequence,PBM E-score of 8-mer
1,CTTGCTTC,-0.261 ± 0.0056
2,CCCCTAGA,-0.209 ± 0.021
3,AGAAATCA,-0.0375 ± 0.0056
4,CCACACAC,0.353 ± 0.018
5,AACGCGCG,0.25 ± 0.044
6,CTCCGGAC,-0.191 ± 0.0068
7,ACCGAGGC,-0.0843 ± 0.034
8,GACGGTCA,0.0624 ± 0.056
9,GGTCTCGA,-0.115 ± 0.014
10,ATGGAAAT,-0.16 ± 0.017
11,GGCAGCGA,0.123 ± 0.032
12,GGGATACA,-0.129 ± 0.041
13,CTACGCAA,-0.167 ± 0.015
14,CCTAGCAG,-0.0816 ± 0.02
15,GTTGGTTA,0.075 ± 0.0027
16,AGTCTTAT,-0.0567 ± 0.077
17,AGTTTACG,-0.0588 ± 0.034
18,AGTGATGG,0.158 ± 0.014
19,CACCTGGG,0.328 ± 0.011
20,AGCCACGA,0.0321 ± 0.012
21,TAGAAAAA,-0.0231 ± 0.006
22,AACTATGA,-0.112 ± 0.04
23,GAACGTCC,-0.0438 ± 0.033
24,CCATCGAC,-0.0348 ± 0.066
25,ATGGTAAC,-0.0929 ± 0.012

row,Sequence,PBM E-score of 8-mer
1,AGGATAAC,0.0902 ± 0.044
2,ATCGATAC,-0.0782 ± 0.076
3,AGGCCATA,-0.0266 ± 0.0079
4,ACTTAGTG,0.0407 ± 0.029
5,GCCACGTA,-0.0016 ± 0.033
6,GGGAAATA,-0.169 ± 0.013
7,CTATCTGC,-0.0522 ± 0.014
8,CCCGCAGC,-0.0148 ± 0.069
9,CAACGGCA,-0.00794 ± 0.037
10,GGCAGTTA,0.0315 ± 0.0055
11,GATCGCAA,0.2797 ± 0.00053
12,CATGCTTC,-0.19 ± 0.07
13,CGCGGTCC,-0.00405 ± 0.11
14,AAATGAAC,-0.198 ± 0.019
15,GACAGATA,0.143 ± 0.035
16,GTCATTAA,0.00316 ± 0.0041
17,CAGCTACG,-0.036 ± 0.0027
18,CTAAGGAC,-0.147 ± 0.039
19,TTAAGTAA,-0.184 ± 0.01
